# Whole data set: some 110,000 compounds, median “z-score” near -0.1, cut for the highest 2% near 2. The list shows a part of the results.
# Biological target: Metabotropic glutamate receptor 8 (Rattus norvegicus) (UniProt P70579)
# Experiment: rat mGluR8 modulators via GIRK flux, primary screen, cell-based, thallium flux, HTS (AID 488969)
# Conditions: HEK293 rat mGluR8, GIRK (G protein-gated inwardly rectifying potassium channel) thallium flux, FluoZin2; at 10 µM; stronger effect = higher value; submaximal glutamate (EC20) added with thallium
# Sequence of UniProt P70579 (P70579 whole entry, looked up): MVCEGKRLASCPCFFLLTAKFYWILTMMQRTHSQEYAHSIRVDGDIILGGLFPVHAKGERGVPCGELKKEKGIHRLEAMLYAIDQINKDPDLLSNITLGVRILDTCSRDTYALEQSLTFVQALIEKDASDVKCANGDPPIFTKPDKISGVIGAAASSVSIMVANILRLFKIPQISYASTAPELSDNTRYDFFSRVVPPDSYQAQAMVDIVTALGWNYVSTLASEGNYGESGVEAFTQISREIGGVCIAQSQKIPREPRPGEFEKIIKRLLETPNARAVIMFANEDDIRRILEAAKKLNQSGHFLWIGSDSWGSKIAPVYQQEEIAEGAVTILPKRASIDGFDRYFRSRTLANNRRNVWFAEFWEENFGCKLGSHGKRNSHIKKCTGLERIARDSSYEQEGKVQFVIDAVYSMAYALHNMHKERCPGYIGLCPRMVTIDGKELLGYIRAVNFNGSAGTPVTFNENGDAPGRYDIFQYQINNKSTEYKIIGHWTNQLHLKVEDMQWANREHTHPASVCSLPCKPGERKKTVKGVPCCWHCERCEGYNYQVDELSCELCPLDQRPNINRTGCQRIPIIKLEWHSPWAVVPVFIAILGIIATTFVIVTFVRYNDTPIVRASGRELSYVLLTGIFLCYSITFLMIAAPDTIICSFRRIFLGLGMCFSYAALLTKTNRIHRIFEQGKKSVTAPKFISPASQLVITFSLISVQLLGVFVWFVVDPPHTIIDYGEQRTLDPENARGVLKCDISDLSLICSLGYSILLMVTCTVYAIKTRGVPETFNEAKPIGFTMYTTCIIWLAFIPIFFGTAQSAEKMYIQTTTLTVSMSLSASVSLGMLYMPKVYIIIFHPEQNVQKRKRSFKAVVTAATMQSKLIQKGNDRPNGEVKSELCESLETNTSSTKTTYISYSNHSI
row,Structure (SMILES),z-score
1,Cc1c(NC(=S)NC(NC(=O)C(C)(C)C)C(Cl)(Cl)Cl)c(=O)n(-c2ccccc2)n1C (centres undefined),-0.237
2,Cc1c(NC(=O)C(C)c2ccc(CC(C)C)cc2)c(=O)n(-c2ccccc2)n1C (centres undefined),-0.175
3,CC(=O)c1c(OCC(=O)O)ccc2c(C)cc(=O)oc12,0.443
4,COc1ccc(NC(=O)C2CCC(=O)N2S(=O)(=O)c2ccc(C)cc2)c(OC)c1 (centres undefined),0.0154
5,O=S(=O)(Nc1ccc(F)cc1)N1CCCCCC1,0.113
6,Cc1ccc(NC(=O)c2ccccc2N(C)S(C)(=O)=O)cc1C,-0.0366
7,Cc1ccccc1OCC(=O)NNC(=O)c1ccc(-c2ccccc2)cc1,0.207
8,Nc1nnc(Cc2ccccc2)s1,-0.122
9,CCOC(=O)C1C2C=CC3(CN(CCc4ccccc4)C(=O)C13)O2 (centres undefined),-0.0471
10,O=C(O)C1CC=CCC1C(=O)NCc1cn2ccccc2n1 (centres undefined),-0.161
11,O=c1cc(N2CCC3(CC2)OCCO3)[nH]c(=O)n1-c1ccc(Br)cc1,0.00229
12,CCC(C)NS(=O)(=O)c1ccc(OCC(=O)Nc2ccc3c(c2)OCO3)cc1 (centres undefined),1.04
13,CCOc1ccc2nc(N3CCC(C(=O)N4CCN(C5CCCCC5)CC4)CC3)sc2c1,0.23
14,C#CCn1c(=NC(=O)CN2C(=O)CCC2=O)sc2cccc(C)c21,-0.276
15,COCc1cc(/C=N\NC(=O)COc2ccc(Cl)cc2)ccc1OC,-0.355
16,Cc1nn(CC(=O)NCCc2ccc(Cl)cc2Cl)c(C)c1[N+](=O)[O-],-0.67
17,O=C(CSc1nnc2ccccn12)N1CCOCC1,0.286
18,CCOc1cc(-c2nc(-c3ccc(C)nc3OC)no2)cc(OCC)c1OCC,-0.11
19,Cc1ccc(Nc2nc(N)nc(CC#N)n2)cc1,0.115
20,NS(=O)(=O)c1ccc(NC(=O)CSc2nnc(COc3ccccc3Cl)n2C2CC2)cc1,0.288
21,Cc1ccc(C(=O)OCC(=O)Nc2sc3c(c2C#N)CCCC3)cc1NC(=O)c1ccco1,2.03
22,CC(=O)c1c(C)[nH]c(C(=O)CSc2nc3ccccc3n2C)c1C,0.0771
23,Cc1cccc(OCCCC(=O)Nc2ccc(N3CCCCC3)cc2)c1C,0.0131

row,Structure (SMILES),z-score
1,CCC(=O)NS(=O)(=O)c1cccnc1Nc1ccccc1Cl,-0.483
2,CC(CCc1ccco1)NC(=O)c1cc2c(-c3ccccc3F)nn(C)c2s1 (centres undefined),-0.263
3,CCC12CN(S(=O)(=O)c3ccc(C)cc3)CC(CC)(CN(S(=O)(=O)c3ccc(C)cc3)C1)C2=O,-0.0813
4,CC1=C(/C=C/C(=O)O)C(C)(C)CCC1,-0.0012
5,CCOc1ccccc1N1CCN(S(=O)(=O)c2ccc3c4c(cccc24)C(=O)N3)CC1,0.499
6,O=C(NCc1ccccc1)c1cnc(-c2ccccn2)nc1C(F)(F)F,-0.365
7,Cc1ccsc1/C=N/N=C1\C(=O)Nc2ccccc21,-0.398
8,CCC(=O)N(Cc1cccs1)C1CCOC(C)(C)C1 (centres undefined),0.214
9,Cc1ccn2c(-c3csc(NCc4ccccc4)n3)c(C)nc2c1,-0.461
10,COc1ccc(NC(=O)C2CCCN(S(=O)(=O)c3cccnc3)C2)c(OC)c1 (centres undefined),0.47
11,Cc1nc2ccc(NC(=O)c3nn(CC(C)C)c(=O)c4ccccc34)cc2s1,-1.21
12,CCCCOC(=O)C1CCCC(C)N1 (centres undefined),-0.0495
13,O=c1[nH]cnc2c1C1(CCCC1)Cc1ccccc1-2,-0.476
14,CCOc1ccccc1CNC(=O)c1cc2oc3ccccc3c2n1CC,0.192
15,CC1(C)CC(=O)C=C(NCCCN2CCCC2=O)C1,0.368
16,COc1ccc(C(=O)Oc2ccc(F)cc2C(=O)/C=C/c2ccc(OC)c(OC)c2)cc1,-0.437
17,N#Cc1c(NC(=O)CSc2ncccn2)oc(-c2ccccc2)c1-c1ccccc1,-2.01
18,Cc1cc(C)nc(Nc2n[nH]c(-c3ccc(N)cc3)n2)n1,-0.401
19,CCC(C)C(Nc1ccc(C(=O)OC)cc1[N+](=O)[O-])C(=O)OC (centres undefined),0.499
20,Cc1ccc(S(=O)(=O)Oc2ccccc2N2C(=O)C3CC=CCC3C2=O)cc1 (centres undefined),-0.0558
21,COc1cccc(C(c2sc3ncnn3c2O)N2CCN(C(=O)c3ccco3)CC2)c1 (centres undefined),-0.372
22,Cc1ccc(NC(=O)CSc2n[nH]c(C)c2[N+](=O)[O-])cc1,-0.0123
23,COc1ccc(OC)c(C(=O)c2nc3c(n2O)CCCCC3)c1,-0.156

row,Structure (SMILES),z-score
1,CCNC(=S)N/N=C/c1ccc(OCC(=O)Nc2ccc(C)cc2)cc1,-0.105
2,CCOc1ccc(N2CC(C(=O)Nc3ccccc3F)CC2=O)cc1 (centres undefined),-0.15
3,Cc1ccc([N+](=O)[O-])cc1N/C=C/C(=O)c1ccco1,-0.039
4,COCCNC(=O)c1cccc(C)c1[N+](=O)[O-],-0.118
5,COc1ccc(/C(N)=N/OC(=O)CSc2ccccc2)cc1OC,-0.636
6,Cc1ccccc1NC(=O)c1sc(Cl)nc1-c1ccccc1,-0.159
7,O=C(Nc1cccn2ncnc12)c1ccc(Cl)cc1Cl,-0.224
8,O=C(/C=C/c1ccccc1)NCCSCc1ccc(Cl)cc1,-0.0486
9,CCCC(=O)N(c1ccc2oc(=O)sc2c1)S(=O)(=O)c1ccccc1,0.341
10,Cc1cccc(C2CC(c3ccccc3)Nc3nc(N)nn32)c1 (centres undefined),0.229
11,O=C(c1ccco1)N1CCN(CC2CC3C=CC2C3)CC1 (centres undefined),0.296
12,O=C(CCC(=O)N1CCN(S(=O)(=O)c2ccc(Cl)cc2)CC1)NCc1ccccc1,-0.172
13,CC(Sc1nnc(-c2cccs2)n1Cc1ccccc1)C(=O)NCc1ccc2c(c1)OCO2 (centres undefined),0.0555
14,COc1cc(C=O)ccc1OCCOCCOc1ccc(Cl)cc1,-0.376
15,CC(C)n1c(NCc2cc(Cl)ccc2O)nc2ccccc21,-0.0481
16,N#Cc1nc(COc2ccccc2F)oc1NCc1ccc(F)cc1,-0.0335
17,CN(C)CCCN(C(=O)c1sc2ccccc2c1Cl)c1nc2c(F)cccc2s1,-0.149
18,C=CCNc1nc(Cl)nc(Nc2ccc(OC)cc2)n1,-0.179
19,N#CC(C#N)=Cc1cc2ccccc2nc1N1CCCCC1,-0.58
20,CCc1cc[n+](C2=C([O-])c3ccccc3C(=O)/C2=N\S(=O)(=O)c2cccs2)cc1,-0.161
21,O=C1CCCC2=C1C1(CCCCC1)N=C(Nc1nc3ccccc3o1)N2,-0.209
22,O=C(CSc1nc(O)cc(=O)[nH]1)C1CC1,-0.0834
23,CC(=O)c1ccc(OCCCC(=O)NC2=NCCS2)cc1,-0.155

row,Structure (SMILES),z-score
1,CCc1cc2c(=O)c(-c3nc4ccccc4n3C)c(COCC(=O)O)oc2cc1O,-0.454
2,O=c1[nH]n(-c2cccc(Cl)c2)c2ncccc12,-0.272
3,Cc1ccc(N(CC(=O)NCc2ccncc2)S(C)(=O)=O)cc1Cl,1.2
4,Nc1nccnc1C(=O)OCC(=O)Nc1cccc(S(=O)(=O)N2CCCCC2)c1,-0.0359
5,Cc1ccccc1Nc1nc2ccccc2s1,0.103
6,Nc1cc(-c2ccc(Br)cc2)nn1S(=O)(=O)c1cccc2nsnc12,0.00233
7,COc1cc(NC(=O)C2CC(c3cccc(OC)c3OC)=NO2)cc(OC)c1OC (centres undefined),0.254
8,O=C(COc1nnc2ccccn12)N1CCN(S(=O)(=O)c2ccccc2)CC1,0.105
9,CCOC(=O)Cc1c(C)nc2c(C#N)c(C)nn2c1C,0.174
10,CC(NC(=O)CC(O)(C(F)(F)F)C(F)(F)F)c1ccccc1 (centres undefined),-0.166
11,O=C(O)CSc1nc2ccc(Cl)cc2[nH]1,-0.0827
12,CCn1nnc(-c2ccccc2NC(=O)c2cnccn2)n1,-0.166
13,CCn1nc([N+](=O)[O-])c(C(C#N)c2nc3ccccc3n2C)c(Cl)c1=O (centres undefined),-0.682
14,COC(=O)c1sc2nc(SCc3ccccc3C#N)n(N)c(=O)c2c1C,0.247
15,CC(C)CSc1nsc(N)n1,-0.123
16,Cc1ccccc1NC(=O)NCc1ccco1,0.207
17,COc1cccc(/C=N/Nc2nnc(C)n2N)c1OCc1ccccc1Cl,-0.451
18,CC(CC(=O)Nc1ccccc1C(F)(F)F)c1ccccc1 (centres undefined),-0.0979
19,CC(CC#CCN1CCOCC1)OCCC#N (centres undefined),0.79
20,O=C(Cn1ccc2ccccc2c1=O)NCCC(=O)NC1CCN(Cc2ccccc2)CC1,0.439
21,N=c1c2c3c(sc2ncn1CCCO)CCCC3,-0.123
22,Cn1ccnc1SCC(=O)c1cc2ccccc2o1,0.608
23,Cc1ccc2[nH]c(=O)c(CN(Cc3cccs3)C(=S)NCC3CCCO3)cc2c1 (centres undefined),-0.21

row,Structure (SMILES),z-score
1,COc1nc(-c2ccccc2)ccc1-c1noc(COc2ccccc2)n1,0.145
2,Cc1cc(N)n2ncc(-c3ccc(F)cc3)c2n1,0.097
3,O=C1N(c2ccccc2)C(c2ccc(Cl)cc2)N2CCCN12 (centres undefined),0.277
4,O=C1CCCc2c1cc(-c1ccccc1)n2-c1ccccc1,-0.33
5,CCC(Oc1ccc2c(=O)c(-c3ccccc3OC)coc2c1)C(=O)OCc1ccccc1 (centres undefined),0.245
6,CCOC(=O)C(C)Sc1ncnc2c1nnn2-c1ccc(F)cc1 (centres undefined),-0.257
7,COCc1cc(=O)n2[nH]c(-c3ccc(C)cc3)cc2n1,-0.344
8,N#Cc1c(NC(=O)c2cccnc2)sc2c1CCC2,0.204
9,O=S(=O)(NCC1CCCO1)c1ccc(S(=O)(=O)N(Cc2ccc(F)cc2)Cc2ccccn2)cc1 (centres undefined),-0.33
10,Cc1nnc(SCC(=O)NCc2ccccc2)[nH]c1=O,0.0528
11,CCCCC(=O)Nc1cccc(NC(=S)NC(C)=O)c1,-0.248
12,COc1cccc(NC(=O)CNC(=O)c2cccs2)c1,0.171
13,CCc1nnc(NC(=O)CSc2nc(-c3ccccc3)cc(-c3ccc(OC)cc3)c2C#N)s1,-0.249
14,CN1CCc2c(sc3c2c(=O)n(-c2ccccc2)c2n[nH]c(=S)n32)C1,-0.215
15,CCOC(=O)C1=C(C)NC(=S)N(C(C)=O)C1c1ccccc1 (centres undefined),-2.05
16,Cc1cc(=O)oc2cc(OCc3ccc(S(=O)(=O)N4CCOCC4)cc3)ccc12,-0.364
17,O=C1N(Cc2ccc3c(c2)OCO3)c2ccccc2C1(O)c1c[nH]c2ccccc12 (centres undefined),-0.749
18,COc1ccccc1N1CC(C(=O)Nc2cccc(C(=O)O)c2)CC1=O (centres undefined),0.601
19,COCCOC(=O)C1=C(N)OC2=C(C(=O)CC(C)(C)C2)C1c1cccnc1 (centres undefined),0.411
20,COc1ccc(F)cc1S(=O)(=O)N1CCCC(C)C1 (centres undefined),-0.129
21,O=C(O)c1cn(-c2ccccc2)nc1-c1ccc(Cl)cc1,-0.381
22,CCN1C(=O)/C(=C/c2cccs2)SC1=Nc1ccc(OC)cc1,0.484

# From PubChem BioAssay AID488969 (Vanderbilt High Throughput Screening Facility, 2010)
